# Source: a collection of fitness landscapes (doi:10.1126/science.1257360)
# The other results are listed elsewhere or left out.
# B1: PhoQ; a variant is named by its letters at X, in order, P23837 (parent)
# chain: MKKLLRLFFPLSLRVRFLLATAAVVLVLSLAYGMVALIGYSVSFDKTTFRLLRGESNLFYTLAKWENNKLHVELPENIDKQSPTMTLIYDENGQLLWAQRDVPWLMKMIQPDWLKSNGFHEIEADVNDTSLLLSGDHSIQQQLQEVREDDDDAEMTHSVAVNVYPATSRMPKLTIVVVDTIPVELKSSYMVWSWFIYVLSANLLLVIPLLWVAAWWSLRPIEALAKEVRELEEHNRELLNPATTRELTSLVRNLNRLLKSERERYDKYRTTLTDLTHSLKTPLXXLQXXLRSLRSEKMSVSDAEPVMLEQISRISQQIGYYLHRASMRGGTLLSRELHPVAPLLDNLTSALNKVYQRKGVNISLDISPEISFVGEQNDFVEVMGNVLDNACKYCLEFVEISARQTDEHLYIVVEDDGPGIPLSKREVIFDRGQRVDTLRPGQGVGLAVAREITEQYEGKIVAGESMLGGARMEVIFGRQHSAPKDE
# Variants of: B1
# Assay: enrichment ratio after two sorts for PhoP signalling (ratio (wild type AVST 3.29)); higher = more functional
# Conditions: with PhoP (E. coli)
row,Variant,enrichment ratio
1,NHLP,≤ 0.25
2,TNVW,≤ 0.25
3,NRPC,≤ 0.25
4,YDRS,≤ 0.25
5,WGSC,≤ 0.25
6,VRGL,≤ 0.25
7,WETR,≤ 0.25
8,TPLD,≤ 0.25
9,HGCH,≤ 0.25
10,VCNG,≤ 0.25
11,MGSL,9.47
12,VNLH,≤ 0.25
13,VLEK,≤ 0.25
14,HLGY,≤ 0.25
15,EFQQ,≤ 0.25
16,FMAH,≤ 0.25
17,GYHM,≤ 0.25
18,DSSW,≤ 0.25
19,MKRV,≤ 0.25
20,WGTL,≤ 0.25
21,SQCC,8.97

row,Variant,enrichment ratio
1,NCRK,≤ 0.25
2,STLN,14.8
3,MHKY,≤ 0.25
4,RDHN,≤ 0.25
5,YVAW,≤ 0.25
6,VGIP,≤ 0.25
7,NMLS,≤ 0.25
8,ITLM,8.61
9,QFTP,≤ 0.25
10,VMMT,≤ 0.25
11,KIPW,≤ 0.25
12,RDDF,≤ 0.25
13,ITFQ,≤ 0.25
14,ANTV,16.3
15,AMCT,5.79
16,LVMS,≤ 0.25
17,PMPF,≤ 0.25
18,HWNR,≤ 0.25
19,WFKN,≤ 0.25
20,IKPQ,≤ 0.25
21,VYFI,≤ 0.25

row,Variant,enrichment ratio
1,MVME,≤ 0.25
2,FTKR,≤ 0.25
3,PQSR,≤ 0.25
4,PLHG,≤ 0.25
5,WRCV,≤ 0.25
6,EFGL,≤ 0.25
7,INHY,≤ 0.25
8,EIAW,≤ 0.25
9,INHP,0.855
10,FENQ,≤ 0.25
11,HRMF,≤ 0.25
12,WHKA,≤ 0.25
13,DHPM,≤ 0.25
14,SWTF,≤ 0.25
15,TVPC,≤ 0.25
16,DNNT,≤ 0.25
17,MYMD,≤ 0.25
18,QGNY,≤ 0.25
19,AMWC,≤ 0.25
20,HLFN,≤ 0.25
21,SELP,≤ 0.25

row,Variant,enrichment ratio
1,KFIA,≤ 0.25
2,VGPI,≤ 0.25
3,AHFK,≤ 0.25
4,GKAC,≤ 0.25
5,TYQR,≤ 0.25
6,SVMG,5.71
7,EIWY,≤ 0.25
8,QQIY,≤ 0.25
9,VRNY,≤ 0.25
10,HWFN,≤ 0.25
11,IHNS,≤ 0.25
12,KEPC,≤ 0.25
13,KPML,≤ 0.25
14,DQKY,≤ 0.25
15,PSES,≤ 0.25
16,DQIQ,≤ 0.25
17,KPPY,≤ 0.25
18,MHWS,≤ 0.25
19,EGPE,≤ 0.25
20,PCTQ,≤ 0.25
21,PDFW,1.24
